From patent publication US9284335B2, “Substituted pyrido[3,2-e][1,2,4]triazolo[1,5-c]pyrimidines, pyrido[2,3-e][1,2,4]triazolo[1,5-c]pyrimidines and/or [1,2,4]triazolo[1,5-c]pteridines for treatment of central nervous system diseases and disorders” (DART NEUROSCIENCE (CAYMAN) LTD., priority 2012, dated 2016) come the findings set out here.

For the experiment, the target named is full-length recombinant NH-terminal GST tagged human PDE1b enzyme (Homo sapiens, UniProt Q01064). Briefly: PDE1b inhibitory assay (IMAP TR-FRET). The settings on record: negative log of half-maximal molar inhibitory concentration; FAM-cAMP 200 nM; reported as bins; read-out: PDE1b (pEC50) (converted). The class given is biochemical. On the technique in general: In TR-FRET formats the signal depends on donor and acceptor labels being close together.

`COc1ccc(Cn2c(=O)n3ncnc3c3cc(CN4CC(F)(F)OC(F)(F)C4)cnc32)cc1` [Example 42, 6-(4-Methoxybenzyl)-9-((2,2,6,6-tetrafluoromorpholino)methyl)pyrido[3,2-e][1,2,4]triazolo[1,5-c]pyrimidin-5(6H)-one]: the EC50 was 100 to 1000 nM.

With `COc1ccc(Cn2c(=O)n3ncnc3c3ccc(CNCc4ccccc4)nc32)cc1` [Example 78, 8-((Benzylamino)methyl)-6-(4-methoxybenzyl)pyrido[3,2-e][1,2,4]triazolo[1,5-c]pyrimidin-5(6H)-one], the EC50 is 100 to 1000 nM.

Regarding `C[C@@H]1CN(Cc2cnc3c(c2)c2ncnn2c(=O)n3Cc2cc(F)ccc2F)C[C@H](C)O1` [Example 134], the EC50 is 100 to 1000 nM.

On to `C[C@@H]1CN(Cc2cnc3c(c2)c2ncnn2c(=O)n3Cc2ccc(S(C)(=O)=O)cc2Cl)C[C@H](C)O1` [Example 120, 6-(2-Chloro-4-(methylsulfonyl)benzyl)-9-(((2S,6R)-2,6-dimethylmorpholino)methyl)pyrido[3,2-e][1,2,4]triazolo[1,5-c]pyrimidin-5(6H)-one], for which the EC50 is over 10000 nM.

As to `COCCN(Cc1cnc2c(c1)c1ncnn1c(=O)n2Cc1ccc(OC)cc1)C(C)C` [Example 55, 9-((Isopropyl(2-methoxyethyl)amino)methyl)-6-(4-methoxybenzyl)pyrido[3,2-e][1,2,4]triazolo[1,5-c]pyrimidin-5(6H)-one], the EC50 is 100 to 1000 nM.

As to `COc1ccc(Cn2c(=O)n3ncnc3c3cc(CCNC(=O)OCc4ccccc4)cnc32)cc1` [Example 20, Benzyl (2-(6-(4-methoxybenzyl)-5-oxo-5,6-dihydropyrido[3,2-e][1,2,4]triazolo[1,5-c]pyrimidin-9-yl)ethyl)carbamate], the EC50 was 100 to 1000 nM.

In the case of `COc1ccc(Cn2c(=O)n3ncnc3c3ccc(CN(C)C4CC4)nc32)cc1` [Example 76, 8-((Cyclopropyl(methyl)amino)methyl)-6-(4-methoxybenzyl)pyrido[3,2-e][1,2,4]triazolo[1,5-c]pyrimidin-5(6H)-one], the EC50 is 100 to 1000 nM.

For the compound `COc1ccc(Cn2c(=O)n3ncnc3c3cc(C(C)=O)cnc32)cc1` [Example 81, 9-Acetyl-6-(4-methoxybenzyl)pyrido[3,2-e][1,2,4]triazolo[1,5-c]pyrimidin-5(6H)-one], the EC50 was 100 to 1000 nM.

As to `COc1ccc(Cn2c(=O)n3ncnc3c3ccc(CN4C[C@@H](C)O[C@@H](C)C4)nc32)cc1` [Example 73, 8-(((2S,6R)-2,6-Dimethylmorpholino)methyl)-6-(4-methoxybenzyl)pyrido[3,2-e][1,2,4]triazolo[1,5-c]pyrimidin-5(6H)-one], the EC50 was 100 to 1000 nM.

Regarding `COc1ccc(Cn2c(=O)n3ncnc3c3cc(CN4CCC(OC)CC4)cnc32)cc1` [Example 52], the EC50 is 100 to 1000 nM.

For `COc1ccc(Cn2c(=O)n3ncnc3c3cc(-c4ccc(OC)nc4)cnc32)cc1` [Example 6, 6-(4-Methoxybenzyl)-9-(6-methoxypyridin-3-yl)pyrido[3,2-e][1,2,4]triazolo[1,5-c]pyrimidin-5(6H)-one], the EC50 is 100 to 1000 nM.

As to `C[C@@H]1CN(Cc2cnc3c(c2)c2ncnn2c(=O)n3Cc2ccc(Cl)c(Cl)c2)C[C@H](C)O1` [Example 111, 6-(3,4-Dichlorobenzyl)-9-(((2S,6R)-2,6-dimethylmorpholino)methyl)pyrido[3,2-e][1,2,4]triazolo[1,5-c]pyrimidin-5(6H)-one], the EC50 was 100 to 1000 nM.

In the case of `C[C@@H]1CN(Cc2cnc3c(c2)c2ncnn2c(=O)n3Cc2cc(F)c(F)cc2Cl)C[C@H](C)O1` [Example 139], the EC50 was 1000 to 10000 nM.

For the compound `COc1ccc(Cn2c(=O)n3ncnc3c3nc(CN4CCCCC4)cnc32)cc1` [Example 164, 6-(4-Methoxybenzyl)-9-(piperidin-1-ylmethyl)-[1,2,4]triazolo[1,5-c]pteridin-5(6H)-one], the EC50 is 1000 to 10000 nM.

Take `C[C@@H]1CN(Cc2cnc3c(c2)c2ncnn2c(=O)n3Cc2ccc(C(C)(C)C)cc2)C[C@H](C)O1` [Example 96]: the EC50 is over 10000 nM.

In the case of `COc1ccc(Cn2c(=O)n3ncnc3c3cc(CN4CCCCC4)cnc32)cc1` [Example 22, 6-(4-Methoxybenzyl)-9-(piperidin-1-ylmethyl)pyrido[3,2-e][1,2,4]triazolo[1,5-c]pyrimidin-5(6H)-one], the EC50 is 100 to 1000 nM.

Regarding `COc1ccc(Cn2c(=O)n3ncnc3c3cc(CN4CCCN(C(C)=O)CC4)cnc32)cc1` [Example 50, 9-((4-Acetyl-1,4-diazepan-1-yl)methyl)-6-(4-methoxybenzyl)pyrido[3,2-e][1,2,4]triazolo[1,5-c]pyrimidin-5(6H)-one], the EC50 was 100 to 1000 nM.

Turning to `COc1ccc(Cn2c(=O)n3ncnc3c3ncc(CN4C[C@@H](C)O[C@@H](C)C4)cc32)cc1` [Example 60, 8-(((2S,6R)-2,6-Dimethylmorpholino)methyl)-6-(4-methoxybenzyl)pyrido[2,3-e][1,2,4]triazolo[1,5-c]pyrimidin-5(6H)-one], the EC50 was 1000 to 10000 nM.

As to `COc1ccc(Cn2c(=O)n3ncnc3c3cc(C(O)CN4CCOCC4)cnc32)cc1` (stereo not shown) [Example 83, 9-(1-Hydroxy-2-morpholinoethyl)-6-(4-methoxybenzyl)pyrido[3,2-e][1,2,4]triazolo[1,5-c]pyrimidin-5(6H)-one], the EC50 was 100 to 1000 nM.

In the case of `C[C@@H]1CN(Cc2cnc3c(c2)c2ncnn2c(=O)n3Cc2c(F)cc(Cl)cc2F)C[C@H](C)O1` [Example 147], the EC50 is under 100 nM.

Take `COc1ccc(Cn2c(=O)n3ncnc3c3cc(CN4CCC5(CCOCC5)N4C)cnc32)cc1` [Example 44, 6-(4-Methoxybenzyl)-9-((1-methyl-8-oxa-1,2-diazaspiro[4.5]decan-2-yl)methyl)pyrido[3,2-e][1,2,4]triazolo[1,5-c]pyrimidin-5(6H)-one]: the EC50 is under 100 nM.

`COc1ccc(Cn2c(=O)n3ncnc3c3cc(CN4C[C@@H](C)O[C@@H](C)C4)cnc32)cc1C` [Example 132, 9-(((2S,6R)-2,6-Dimethylmorpholino)methyl)-6-(4-methoxy-3-methylbenzyl)pyrido[3,2-e][1,2,4]triazolo[1,5-c]pyrimidin-5(6H)-one]: the EC50 was 100 to 1000 nM.

`COc1ccc(Cn2c(=O)n3ncnc3c3cc(CN4C[C@@H](C)O[C@@H](C)C4)cnc32)cc1F` [Example 92, 9-(((2S,6R)-2,6-Dimethylmorpholino)methyl)-6-(3-fluoro-4-methoxybenzyl)pyrido[3,2-e][1,2,4]triazolo[1,5-c]pyrimidin-5(6H)-one]: the EC50 is 100 to 1000 nM.

For the compound `COc1ccc(Cn2c(=O)n3ncnc3c3cc(CN4CCN(C)CC4)cnc32)cc1` [Example 37], the EC50 was 100 to 1000 nM.

In the case of `Cc1ccc(Cn2c(=O)n3ncnc3c3cc(CN4C[C@@H](C)O[C@@H](C)C4)cnc32)c(C)c1` [Example 159], the EC50 is 100 to 1000 nM.

In the case of `COc1ccc(Cn2c(=O)n3ncnc3c3cc(N(C)C4CCOCC4)cnc32)cc1` [Example 16, 6-(4-Methoxybenzyl)-9-(methyl(tetrahydro-2H-pyran-4-yl)amino)pyrido[3,2-e][1,2,4]triazolo[1,5-c]pyrimidin-5(6H)-one], the EC50 is 100 to 1000 nM.

On to `C=Cc1cnc2c(c1)c1ncnn1c(=O)n2Cc1ccc(OC)cc1` [Example 30, 6-(4-Methoxybenzyl)-9-vinylpyrido[3,2-e][1,2,4]triazolo[1,5-c]pyrimidin-5(6H)-one], for which the EC50 is 100 to 1000 nM.

Take `COc1ccc(Cn2c(=O)n3ncnc3c3cc(C(C)N4C[C@@H](C)O[C@@H](C)C4)cnc32)cc1` (stereo partly drawn) [Example 82, 9-(1-((2S,6R)-2,6-Dimethylmorpholino)ethyl)-6-(4-methoxybenzyl)pyrido[3,2-e][1,2,4]triazolo[1,5-c]pyrimidin-5(6H)-one]: the EC50 is under 100 nM.

In the case of `CCOc1c(F)cc(Cn2c(=O)n3ncnc3c3cc(CN4C[C@@H](C)O[C@@H](C)C4)cnc32)cc1Cl` [Example 154, 6-(3-Chloro-4-ethoxy-5-fluorobenzyl)-9-(((2R,6S)-2,6-dimethylmorpholino)methyl)pyrido[3,2-e][1,2,4]triazolo[1,5-c]pyrimidin-5(6H)-one], the EC50 was over 10000 nM.

Regarding `COc1ccc(Cn2c(=O)n3ncnc3c3cc(CN4C[C@@H](C)O[C@@H](C)C4)cnc32)cc1` [Example 36, 9-(((2S,6R)-2,6-dimethylmorpholino)methyl)-6-(4-methoxybenzyl)pyrido[3,2-e][1,2,4]triazolo[1,5-c]pyrimidin-5(6H)-one], the EC50 is under 100 nM.

`COc1ccc(Cn2c(=O)n3ncnc3c3nc(CN4CCOCC4)cnc32)cc1` [Example 162, 6-(4-Methoxybenzyl)-9-(morpholinomethyl)-[1,2,4]triazolo[1,5-c]pteridin-5(6H)-one]: the EC50 is 100 to 1000 nM.

Consider `COc1ccc(Cn2c(=O)n3ncnc3c3ncc(CN4CCCCC4)cc32)cc1` [Example 58, 6-(4-Methoxybenzyl)-8-(piperidin-1-ylmethyl)pyrido[2,3-e][1,2,4]triazolo[1,5-c]pyrimidin-5(6H)-one], for which the EC50 was 1000 to 10000 nM.

Turning to `C[C@@H]1CN(Cc2cnc3c(c2)c2ncnn2c(=O)n3Cc2ccc(Cl)cc2Cl)C[C@H](C)O1` [Example 142], the EC50 is 100 to 1000 nM.

Turning to `C[C@@H]1CN(Cc2cnc3c(c2)c2ncnn2c(=O)n3Cc2ccc(S(C)(=O)=O)cc2)C[C@H](C)O1` [Example 98, 9-(((2S,6R)-2,6-Dimethylmorpholino)methyl)-6-(4-(methylsulfonyl)benzyl)pyrido[3,2-e][1,2,4]triazolo[1,5-c]pyrimidin-5(6H)-one], the EC50 is over 10000 nM.

In the case of `COc1ccc(Cn2c(=O)n3ncnc3c3ccc(CN(C)CC4CCOC4)nc32)cc1` (stereo not shown) [Example 75, 6-(4-Methoxybenzyl)-8-((methyl((THF-3-yl)methyl)amino)methyl)pyrido[3,2-e][1,2,4]triazolo[1,5-c]pyrimidin-5(6H)-one], the EC50 was 100 to 1000 nM.

Regarding `COc1ccc(Cn2c(=O)n3ncnc3c3nc(CN4CCN(C(C)=O)CC4)cnc32)cc1` [Example 166, 9-((4-Acetylpiperazin-1-yl)methyl)-6-(4-methoxybenzyl)-[1,2,4]triazolo[1,5-c]pteridin-5(6H)-one], the EC50 was 100 to 1000 nM.

For the compound `C[C@@H]1CN(Cc2cnc3c(c2)c2ncnn2c(=O)n3Cc2cc(F)cc(Cl)c2)C[C@H](C)O1` [Example 115], the EC50 is 1000 to 10000 nM.
